Measured values published in PubChem BioAssay (NCATS).
Several values for one entry are separate records, joined by “and”; a condition that tells them apart may be missing. Identical values can stand only once. The inconclusive results got no clear call from the source; some entries with a clear call stand among them for comparison. For some of these results: A potency beside an inconclusive call is a rough fit, not a confirmed value. Where a structure was tested more than once in an assay, its records may differ in their call. Activity calls are given as the source filed them. Calls come from the whole dose curve; as a rule, active = well fitted curve in the direction sought with a large enough effect; inconclusive = small, poorly fitted or top-dose-only effect, or another doubt; inactive = no such curve, though single readings can be large; an effect the other way counts as inactive or inconclusive.

Legend:
[1] = Viability qHTS for spleen associated tyrosine kinase inhibitor (SYKi) naive MV4-11 cells (AID 1963823); conditions: MV4-11 AML viability, CellTiter-Glo luminescence, 72 h; viability (% of control): at 45 µM (top of the series); note: nearly all actives have a fitted effect of over 40% in size; note: potency is the fitted concentration of half-maximal effect
In short: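 Compounds were dispensed acoustically onto plates, MV4-11 cells (SYKi-naive) added at 500 per well, and plates incubated 72 hr at 37 C. CellTiter-Glo was added and luminescence measured after 10 min.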

[2] = Viability qHTS for spleen associated tyrosine kinase inhibitor (SYKi) drug resistant MV4-11 cells (AID 1963824); note: nearly all actives have a fitted effect of over 35% in size; note: potency is the fitted concentration of half-maximal effect
In short: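 SYK-inhibitor-resistant MV4-11 AML cells were seeded at 500 per well onto compound and cultured 72 hours (37 °C, 5% CO2). CellTiter-Glo was then added, and after 10 min at room temperature, luminescence gave viability.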

[3] = Quantitative highthroughput screen to assess conditional lethalithy of NOMO1 cells grown in Human Plasma-Like Medium with dialyzed fetal bovine serum (HPLM+ds) (AID 1963878); conditions: NOMO1 AML cells in HPLM+ds, CellTiter-Glo viability, 48 h; viability: at 45.8 µM (top of the series); note: nearly all actives have a fitted effect of over 35% in size; note: potency is the fitted concentration of half-maximal effect;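 for Viability: 100% = DMSO wells and 0% = empty wells on each plate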
In short: (§1)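 Each medium arm—HPLM with 10% dialyzed FBS, or RPMI1640 with 5 mM glucose and 10% untreated or dialyzed FBS—was screened against an 11-point, 3-fold compound titration for 48 h at 37 °C, with CellTiter-Glo luminescence as endpoint.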

[4] = Quantitative highthroughput screen to assess conditional lethalithy of P12 Ichikawa cells grown in RPMI1640 with untreated serum (RPMI+s) (AID 1963881); conditions: Potency: viability; note: nearly all actives have a fitted effect of over 35% in size; note: potency is the fitted concentration of half-maximal effect;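 for Viability: 100% = DMSO wells and 0% = empty wells without cells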
In short: as §1

[5] = Quantitative highthroughput screen to assess conditional lethalithy of SEM cells grown in RPMI1640 with unreated serum (RPMI+s) (AID 1963883); conditions: SEM B-ALL cells, CellTiter-Glo viability, 48 h; viability: at 45.8 µM (top of the series); note: nearly all actives have a fitted effect of over 35% in size; note: potency is the fitted concentration of half-maximal effect;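 for Viability: 100% = DMSO wells and 0% = empty wells without cells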
In short: as §1

[6] = Quantitative highthroughput screen to assess conditional lethalithy of SEM cells grown in RPMI1640 with dialyzed fetal bovine serum (RPMI+ds) (AID 1963884); conditions: SEM B-ALL cells, RPMI+dialyzed FBS, CellTiter-Glo viability, 48 h; viability: at 45.8 µM (top of the series); note: nearly all actives have a fitted effect of over 35% in size; note: potency is the fitted concentration of half-maximal effect;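 for Viability: 100% = DMSO control wells and 0% = empty wells without cells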
In short: as §1

[7] = Cellular viability qHTS for adrenocortical cancer (ACC) cell line NCI-H295R (AID 1963990); conditions: CellTiter-Glo ATP luminescence, 48 h; activity change, negative = viability loss: at 46.1 µM (top of the series); note: nearly all actives have a fitted effect of over 60% in size; note: potency is the fitted concentration of half-maximal effect;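 for activity change, negative = viability loss: 0% = DMSO only wells and -100% = full killing with cytotoxic reference compound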
In short: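 Adrenocortical carcinoma cells, suspended at 300 000 cells/mL in serum-free DMEM plus ITS, rested overnight before pin transfer of compound. After two days' incubation, ATP-dependent luminescence was recorded and curve-fitted.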

[8] = Quantitative highthroughput screen to assess conditional lethalithy of SEM cells grown in Human Plasma-Like Medium with dialyzed fetal bovine serum (HPLM+ds) (AID 1963882); note: nearly all actives have a fitted effect of over 35% in size; note: potency is the fitted concentration of half-maximal effect
In short: as §1

[9] = Cellular viability qHTS for adrenocortical cancer (ACC) cell line SW-13 (AID 1963989); conditions: SW-13 ACC cells viability, CellTiter-Glo, 48 h; activity (max response): stronger effect = lower value; note: nearly all actives have a fitted effect of over 65% in size; note: potency is the fitted concentration of half-maximal effect;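 for activity (max response): cells grown in serum-free medium with ITS supplement; % is set by controls: 0 for no effect and ±100 for the full control effect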
In short: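 IC50 and maximal-response values come from four-parameter logistic fits of titration data. SW-13 cells in serum-free medium received compounds (up to 46 uM final) for 48 h before CellTiter-Glo luminescence.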

[10] = Quantitative highthroughput screen to assess conditional lethalithy of P12 Ichikawa cells grown in RPMI1640 with dialyzed fetal bovine serum (RPMI+ds) (AID 1963880); conditions: Potency: P12-Ichikawa viability; note: nearly all actives have a fitted effect of over 35% in size; note: potency is the fitted concentration of half-maximal effect;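 for Viability: 100% = DMSO wells and 0% = empty wells on each plate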
In short: as §1

[11] = Quantitative highthroughput screen to assess conditional lethalithy of P12 Ichikawa cells grown in Human Plasma-Like Medium with dialyzed fetal bovine serum (HPLM+ds) (AID 1963879); conditions: Potency: viability; note: nearly all actives have a fitted effect of over 35% in size
In short: as §1
Tags give direction and shape of the fitted curve.

SMILES	Potency [1]	Potency [2]	Potency [3]	Potency [4]	Potency [5]	Potency [6]	Potency [7]	Potency [8]	Potency [9]	Potency [10]	activity (max response) [9]	Potency [11]
O=c1c(-c2ccc(O)cc2)coc2cc(O)ccc12	inconclusive: 18.6 µM [cytotoxic, partial curve]	inconclusive: 16.6 µM [cytotoxic, partial curve]	inactive	inactive	inactive	inactive	inconclusive: 31.6 µM [cytotoxic, partial curve, poor fit]	–	–	–	–	–
CCCCC(CC)COC(=O)C(C#N)=C(c1ccccc1)c1ccccc1 (configuration not stated)	inconclusive: 0.0013 µM [rising, full curve, poor fit]	inconclusive: 29.9 µM [cytotoxic, single point] and inconclusive: 11.8 µM [cytotoxic, full curve, poor fit]	inactive	inactive	–	–	inconclusive: 29.1 µM [cytotoxic, single point]	–	–	–	–	–
CN(C)c1ccc(C(=C2C=CC(=[N+](C)C)C=C2)c2ccc(N(C)C)cc2)cc1	inconclusive: 0.15 µM [cytotoxic, full curve]	inconclusive: 106 nM [cytotoxic, full curve] and active: 372 nM	active: 0.118 µM	–	active: 0.105 µM	–	–	active: 0.118 µM	active: 651 nM and active: 1.58 µM	–	–	–
C[C@H](O)[C@@H]1C(=O)N2C(C(=O)O)=C(S[C@@H]3CN[C@H](CNS(N)(=O)=O)C3)[C@@H](C)[C@@H]12	inconclusive: 0.001 µM [cytotoxic]	inconclusive: 26.3 µM [cytotoxic, partial curve, poor fit]	inactive	inactive	inactive	inactive	inactive	–	–	–	–	–
O=C1CCC(N2C(=O)c3ccccc3C2=O)C(=O)N1 (configuration not stated)	inactive	inconclusive: 0.0033 µM [rising, full curve, poor fit]	inactive	inactive	–	–	inactive	inactive	–	inactive	inactive: 13.3% and inactive: -15.2%	–
COC1CCC(N(C(=O)C2CCC(C)CC2)c2cc(C3=CCCCC3)sc2C(=O)O)CC1 (configuration not stated)	inconclusive: 18.6 µM [cytotoxic, partial curve, poor fit]	inconclusive: 16.6 µM [cytotoxic, partial curve]	inconclusive: 18.7 µM [cytotoxic, partial curve]	–	inconclusive: 11.8 µM [cytotoxic, full curve, poor fit]	inconclusive: 8.33 µM [cytotoxic, full curve, poor fit]	–	inconclusive: 13.2 µM [cytotoxic, partial curve, poor fit]	–	–	–	–
CS(=O)(=O)c1ccc(Oc2cc(F)cc(C#N)c2)c2c1[C@H](O)C(F)(F)C2	inconclusive: 14.8 µM [cytotoxic, partial curve, poor fit]	inconclusive: 14.8 µM [cytotoxic, partial curve, poor fit]	inactive	–	inconclusive: 0.0023 µM [rising, full curve]	inconclusive: 29.5 µM [cytotoxic, single point]	inactive	inconclusive: 0.0012 µM [rising, full curve, poor fit]	–	inactive	–	–
COc1ccc2nc(S(=O)Cc3ncc(C)c(OC)c3C)[nH]c2c1 (configuration not stated)	inconclusive: 11.9 µM [cytotoxic, partial curve] and inconclusive: 5.25 µM [cytotoxic, partial curve, poor fit]	inconclusive: 10.6 µM [cytotoxic, partial curve] and inconclusive: 16.6 µM [cytotoxic, partial curve]	inconclusive: 33.2 µM [cytotoxic, single point]	–	–	–	–	–	inconclusive: 20.6 µM [cytotoxic, single point]	inactive	–	–
CCn1cc(C(=O)O)c(=O)c2cc(F)c(N3CCNCC3)cc21	inconclusive: 20.9 µM [cytotoxic, partial curve]	inactive and inconclusive: 18.6 µM [cytotoxic, partial curve]	inconclusive: 0.59 µM [cytotoxic, partial curve, poor fit]	–	inconclusive: 5.9 µM [cytotoxic, full curve, poor fit]	inconclusive: 18.7 µM [cytotoxic, partial curve, poor fit]	–	inconclusive: 1.32 µM [cytotoxic, full curve, poor fit]	–	inconclusive: 1.48 µM [cytotoxic, full curve, poor fit]	–	–
O=C(NCCCCN1CCOCC1)c1cc2ccccc2o1	inconclusive: 7.42 µM [cytotoxic, full curve]	inconclusive: 8.33 µM [cytotoxic, full curve]	inactive	inactive	–	–	–	–	–	–	–	–
CC(=O)SCC(Cc1ccccc1)C(=O)NCC(=O)OCc1ccccc1 (configuration not stated)	inconclusive: 23.5 µM [cytotoxic, single point]	active: 20.9 µM	active: 5.9 µM	inconclusive: 9.35 µM [cytotoxic, full curve]	inactive	inactive	–	–	–	inconclusive: 7.43 µM [cytotoxic, full curve]	inactive: -5.9%	–
NS(=O)(=O)c1cc(C(=O)O)c(NCc2ccco2)cc1Cl	inconclusive: 6.68 µM [cytotoxic, single point]	inconclusive: 5.31 µM [cytotoxic, single point]	inactive	–	inconclusive: 3.72 µM [cytotoxic, partial curve, poor fit]	inconclusive: 3.32 µM [cytotoxic, partial curve, poor fit]	–	inconclusive: 0.0017 µM [rising, full curve, poor fit]	–	inactive	–	–
N#Cc1ccc(NC(=O)Nc2ccccc2Br)c2n[nH]nc12	inconclusive: 8.33 µM [cytotoxic, full curve]	inconclusive: 6.61 µM [cytotoxic, full curve]	inconclusive: 33.2 µM [cytotoxic, single point]	–	–	–	inactive	inactive	–	inactive	–	–
O=C(Nc1ccc(Oc2ccnc3[nH]ccc23)c(F)c1)c1cccn(-c2ccc(F)cc2)c1=O	inconclusive: 0.0116 µM [cytotoxic, full curve]	active: 0.0146 µM	inactive	–	inconclusive: 11.8 µM [cytotoxic, partial curve]	inconclusive: 14.8 µM [cytotoxic, partial curve]	–	–	inconclusive: 25.1 µM [cytotoxic, single point]	–	–	–
CC(C)=CC[C@@H](O)C1=CC(=O)c2c(O)ccc(O)c2C1=O	active: 5.25 µM	active: 2.63 µM	inconclusive: 2.64 µM [cytotoxic, full curve]	–	inconclusive: 29.6 µM [cytotoxic, partial curve]	inconclusive: 20.9 µM [cytotoxic, partial curve]	inconclusive: 31.6 µM [cytotoxic, single point]	–	inconclusive: 35.5 µM [cytotoxic, single point]	–	–	–
CCCc1nc2c(C)cc(-c3nc4ccccc4n3C)cc2n1Cc1ccc(-c2ccccc2C(=O)O)cc1	active: 750 nM and inactive	inconclusive: 18.6 µM [cytotoxic, partial curve]	–	inconclusive: 9.35 µM [rising, full curve, poor fit]	–	inactive	–	–	–	–	–	inactive
CC1=NN(c2ccccc2)C(=O)C1	inconclusive: 29.1 µM [cytotoxic, single point] and inconclusive: 16.6 µM [cytotoxic, partial curve]	inconclusive: 15 µM [cytotoxic, partial curve] and inconclusive: 16.4 µM [cytotoxic, partial curve] and inconclusive: 18.6 µM [cytotoxic, partial curve, poor fit]	inactive	–	inactive	–	inactive	–	–	–	–	–
C[C@@H](Cc1cc2c(c(C(N)=O)c1)N(CCCO)CC2)NCCOc1ccccc1OCC(F)(F)F	inconclusive: 29.1 µM [cytotoxic, single point]	inconclusive: 23.1 µM [cytotoxic, partial curve]	inactive	–	–	inactive	–	–	–	–	–	–
CC(C)(F)C[C@H](N[C@@H](c1ccc(-c2ccc(S(C)(=O)=O)cc2)cc1)C(F)(F)F)C(=O)NC1(C#N)CC1	inconclusive: 16.6 µM [cytotoxic, partial curve]	inconclusive: 14.8 µM [cytotoxic, partial curve, poor fit]	inactive	–	–	inactive	–	–	–	–	–	–
NC(=O)c1ccc(-c2nc(-c3ccc4c(c3)OCCO4)c(-c3ccccn3)[nH]2)cc1	inconclusive: 9.34 µM [cytotoxic, full curve, poor fit]	inconclusive: 9.34 µM [cytotoxic, full curve, poor fit]	–	inactive	–	–	inconclusive: 25.1 µM [rising, single point]	–	–	–	inactive: -9.07%	inactive
O=C1CCc2cc(OCCCCc3nnnn3C3CCCCC3)ccc2N1	inconclusive: 10.6 µM [cytotoxic, partial curve] and inconclusive: 13.2 µM [cytotoxic, partial curve]	inconclusive: 21.1 µM [cytotoxic, partial curve] and inconclusive: 6.61 µM [cytotoxic, full curve, poor fit]	inactive	–	–	–	inconclusive: 29.1 µM [cytotoxic, single point]	inactive	inconclusive: 18.4 µM [cytotoxic, single point] and inconclusive: 31.6 µM [cytotoxic, partial curve]	–	–	–
